From the RNAGym collection of RNA variant scans (doi:10.7554/elife.90254) come the findings set out here.

Read counts are not given, so values of variants with three or more changes are uncertain.

The labels stand for the following.
B1: LINE1-mini (parent)
chain: GGCAGAGCUCAACACAGCGUGGCAAAGUGGCUGUGGCUAGACUGCC

Variants of B1 are the subject of this data set. The data set is described as follows: self-cleavage, relative activity (ratio to wild type); higher = more cleavage; in vitro, sequencing; the parent is a self-cleaving ribozyme.
Regarding GGCAGAGCUCAACACAGCGUAGCAAAGUGGCUGUGGCUAGAAUGCG [G21A C42A C46G], the self-cleavage stood at 0.05. For the variant GGCAGAGCUCAACACAGCGGGGCAAACUGGCUGUGACUAGACUGCC [U20G G27C G36A], the self-cleavage was 0.01. Take GGCAGAGCUCAACACAGCGUAGCCAAGUGGCUGUGGCUAGACGGCC [G21A A24C U43G]: the self-cleavage came to 0. As for GGCAGAGCUCAACACAGCGGGGCAAAGUGGCUAUGGCUAGACCGCC [U20G G33A U43C], the figure is 0.03.

GGCAGAGCUCAACACAGCGGGGCAAAAUGGCUGUGGGUAUACCGCC [U20G G27A C37G G40U U43C]: the self-cleavage was determined as 0.02.

GGCAGAGCUCAACACAGCGGGUCAAACUUGCUGUGGCUAGACUCCC [U20G G22U G27C G29U G44C]: the self-cleavage is 0.12.

With GGCAGAGCUCAACACAGCGGGACAAAGUGGCUGUGGGCAGACUGCC [U20G G22A C37G U38C], the self-cleavage turned out to be 0.01.

Take GGCAGAGCUCAACACAGCGGGGCAAAAUGGCUGUGGCUAGAUUGCC [U20G G27A C42U]: the self-cleavage worked out at 0.11. Under GGCAGAGCUCAACACAGCGUAGCAAAGUGGCUGUGGCUAGAAUGGC [G21A C42A C45G] stands 0.01. As for GGCAGAGCUCAACACAGCGUAGCAAAGUGGCUGUGGCUAGAAUGUC [G21A C42A C45U], the figure is 0.07; as for GGCAGAGCUCAACACAGCGGGGCAAAGUAGCUGUGGCUAGACUCCC [U20G G29A G44C], 0.29. Under GGCAGAGCUCAACACAGCGGCGAAUAGUGGCUGUGGCUAGACUGCC [U20G G21C C23A A25U] stands 0.18; under GGCAGAGCUCAACACAGCGUAGCAAUCUGGCUGUGGCUAGACUGCC [G21A A26U G27C], 0.63. As for GGCAGAGCUCAACACAGCGUAGCAAAUUGGCUGGGGGUAGACUGCC [G21A G27U U34G C37G], the self-cleavage stood at 0.02. As for GGCAGAGCUCAACACAGCGUAGCAAAGUGGGGGUCGCUAGACUGCC [G21A C31G U32G G35C], the figure is 0.02; as for GGCAGAGCUCAACACAGCGGGGCAAAGAGGCUGUGGCUAGACUUCC [U20G U28A G44U], 0.15; as for GGCAGAGCUCAACACAGCGGGCCAAAGUGGCUGUGGGUAGACUGCC [U20G G22C C37G], 0.02. GGCAGAGCUCAACACAGCGGUGCAAAGUGGAUGUGCCUAGACUGCC [U20G G21U C31A G36C]: the self-cleavage is 0.06. Regarding GGCAGAGCUCAACACAGCGUAACAAAGUGGCUGUGGAUAGACAGCC [G21A G22A C37A U43A], the self-cleavage was determined as 0.04. Under GGCAGAGCUCAACACAGCGUAGCAAUGUGGCUGUGGCUAUACUGCC [G21A A26U G40U] stands 0.04; under GGCAGAGCUCAACACAGCGGGGCAAAGUGGCAGUGGCAAGACUGCC [U20G U32A U38A], 0.17.

As for GGCAGAGCUCAACACAGCGUAACAAAGUGGCUGUGGCAAGACUGCC [G21A G22A U38A], the self-cleavage came to 0.11. In the case of GGCAGAGCUCAACACAGCGGGGCAAAGUGGCUGAGGCUAGAAUGCC [U20G U34A C42A], the self-cleavage was 0.02. As for GGCAGAGCUCAACACAGCGUAGCAAUGUUGCUGUGGCUUGACUGCC [G21A A26U G29U A39U], the figure is 2.81; as for GGCAGAGCUCAACACAGCGGGGCAAAGUGGCUAUGGCUAGACUUCC [U20G G33A G44U], 0; as for GGCAGAGCUCAACACAGCGUAGCAAAUUGGCUGUAGCAAGACUGCC [G21A G27U G35A U38A], 1.27. GGCAGAGCUCAACACAGCGGGGCAAAGGGGCUGUGGCUAGACUGUC [U20G U28G C45U]: the self-cleavage came out at 0.22. As for GGCAGAGCUCAACACAGCGUAGCAACGUGGCAGUGGCUAGACUGCC [G21A A26C U32A], the figure is 0.09. In the case of GGCAGAGCUCAACACAGCGGGGCAAAGUGGCUAUGGCUAGAUUGCC [U20G G33A C42U], the self-cleavage was determined as 0.04. As for GGCAGAGCUCAACACAGCGUAGCAGAGUGGCUGUGGCUAAAGUGCC [G21A A25G G40A C42G], the figure is 0.04.

For GGCAGAGCUCAACACAGCGUAUCAAAGUGGCUGUGGGUGGACUGCC [G21A G22U C37G A39G], the self-cleavage stood at 0. As for GGCAGAGCUCAACACAGCGUAGCAAAGUGGUUUUGGCUAGACUGCC [G21A C31U G33U], the figure is 0.03; as for GGCAGAGCUCAACACAGCGGGGCAAAGUCGCUCUGGCUAGACUGCC [U20G G29C G33C], 0.11; as for GGCAGAGCUCAACACAGCGGGGCAAAGUGGCUGAGGCUUGAAUGCC [U20G U34A A39U C42A], 0.05. As for GGCAGAGCUCAACACAGCGGGGCAAAGCGGCUGUCAGUAGACUGCC [U20G U28C G35C G36A C37G], the figure is 0.01; as for GGCAGAGCUCAACACAGCGUAGGAAAGUGGCUGUGGCGAGACUGCC [G21A C23G U38G], 0.01; as for GGCAGAGCUCAACACAGCGGGUCAAAGUGGCUGUGCCUAGACUGCC [U20G G22U G36C], 0.15. In the case of GGCAGAGCUCAACACAGCGUAGUAAAGUGGCUGUGGCUUGACUGCC [G21A C23U A39U], the self-cleavage is 0.14. Regarding GGCAGAGCUCAACACAGCGUAGCAAAGUGGCUGUGGCUCGAGUGCC [G21A A39C C42G], the self-cleavage was found to be 0.13. As for GGCAGAGCUCAACACAGCGUAGCAAAAUGGGUGUGCCUAGACUGCC [G21A G27A C31G G36C], the figure is 0.03.

As for GGCAGAGCUCAACACAGCGUAGCUAAGUGGCUGUGGCGAGACUGCC [G21A A24U U38G], the self-cleavage worked out at 0.03. Take GGCAGAGCUCAACACAGCGUAGCAAAGUGGCUGUGGAUAGACUCCC [G21A C37A G44C]: the self-cleavage stood at 0.06. Under GGCAGAGCUCAACACAGCGGGGCAAAGUGGCUGUGGCAAGACUUCA [U20G U38A G44U C46A] stands 0.04; under GGCAGAGCUCAACACAGCGUAGUAAUGUGGCUGUGGCUAGACUGCC [G21A C23U A26U], 2.45; under GGCAGAGCUCAACACAGCGGGGCAAAGUGGCUGCUACUAGAAUGCC [U20G U34C G35U G36A C42A], 0.05. Under GGCAGAGCUCAACACAGCGUAGCAAAGUGGCUGUGGGUAGACUGAC [G21A C37G C45A] stands 0.4; under GGCAGAGCUCAACACAGCGGGUCUAAGUGGCUGUGGCUAGACUGCC [U20G G22U A24U], 0.82. Turning to GGCAGAGCUCAACACAGCGUAGCGAAUUGGCUGUGGCUAGACUGAC [G21A A24G G27U C45A], the self-cleavage was 0.25.

Turning to GGCAGAGCUCAACACAGCGGGCCAAAGUGGCUGUGGCUGGACUGCC [U20G G22C A39G], the self-cleavage amounted to 0.03. For GGCAGAGCUCAACACAGCGGGCCAAAGUGGCUGUGGCUAUACUGCC [U20G G22C G40U], the self-cleavage was found to be 0.01. As for GGCAGAGCUCAACACAGCGUAGCGAAGUGGCGGUGGCUAGACUGCU [G21A A24G U32G C46U], the figure is 0.08; as for GGCAGAGCUCAACACAGCGUAGCAAAGUGGCUGUGGCUAGUUUGCC [G21A A41U C42U], 0.14. For GGCAGAGCUCAACACAGCGUAGCGAAGUGGCUGUGGCUAGACUGAC [G21A A24G C45A], the self-cleavage turned out to be 0.37. Under GGCAGAGCUCAACACAGCGGGGCAAAGUGACUGUCGCUAGACUGCC [U20G G30A G35C] stands 0.13. For the variant GGCAGAGCUCAACACAGCGGGGCAAAUUGGCUUUGGCUAGACUGCC [U20G G27U G33U], the self-cleavage amounted to 0.06. For the variant GGCAGAGCUCAACACAGCGGGGCAAAGUGGCUGGGUCCAGACUGCC [U20G U34G G36U U38C], the self-cleavage came out at 0.06.
